In all, about 110,000 compounds were measured (“z-score”: median about -0.1, highest 2% from about 2 on). Some of the results follow. Activity calls are given as the source filed them.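 How the source made its calls: active means z-score in the third read window above 3 or below -3; inactive means the rest.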
These compounds were tested against Metabotropic glutamate receptor 8 (Rattus norvegicus) (UniProt P70579) (assay: mGluR8 Gi/Go-coupled signaling modulation – cell-based, rat, thallium flux, HTS, primary screen (AID 488969)). Settings: HEK293 rat mGluR8, GIRK (G protein-gated inwardly rectifying potassium channel) thallium flux, FluoZin2; at 10 µM; stronger effect = higher value; submaximal glutamate (EC20) added with thallium.
Sequence of UniProt P70579 (P70579 whole entry, looked up): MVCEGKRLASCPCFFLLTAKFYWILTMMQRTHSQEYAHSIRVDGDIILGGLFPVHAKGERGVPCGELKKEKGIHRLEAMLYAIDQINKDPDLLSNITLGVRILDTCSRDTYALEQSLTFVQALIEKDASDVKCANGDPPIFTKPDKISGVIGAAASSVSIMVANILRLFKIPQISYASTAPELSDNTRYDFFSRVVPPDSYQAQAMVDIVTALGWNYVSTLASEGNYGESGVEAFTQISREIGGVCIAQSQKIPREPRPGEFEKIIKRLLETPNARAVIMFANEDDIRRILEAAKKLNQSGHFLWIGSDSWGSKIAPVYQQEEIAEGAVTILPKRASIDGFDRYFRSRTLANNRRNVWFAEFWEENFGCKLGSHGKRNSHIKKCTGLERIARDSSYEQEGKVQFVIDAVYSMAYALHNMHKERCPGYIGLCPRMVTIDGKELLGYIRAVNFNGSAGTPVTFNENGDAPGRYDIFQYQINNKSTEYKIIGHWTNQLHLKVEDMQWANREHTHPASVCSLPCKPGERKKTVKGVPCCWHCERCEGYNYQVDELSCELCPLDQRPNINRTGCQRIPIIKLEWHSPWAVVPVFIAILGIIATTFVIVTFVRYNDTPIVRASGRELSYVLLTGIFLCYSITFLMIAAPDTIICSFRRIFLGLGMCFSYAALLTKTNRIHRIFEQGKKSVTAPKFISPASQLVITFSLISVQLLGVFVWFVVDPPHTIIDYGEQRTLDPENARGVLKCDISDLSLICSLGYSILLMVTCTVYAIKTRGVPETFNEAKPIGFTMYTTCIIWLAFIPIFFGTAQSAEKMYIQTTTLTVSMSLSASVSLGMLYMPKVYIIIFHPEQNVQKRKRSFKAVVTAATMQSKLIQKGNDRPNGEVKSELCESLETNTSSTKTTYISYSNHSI

| SMILES | z-score |
| --- | --- |
| O=c1cc(CO)occ1OCc1cccc(F)c1 | 0.0037 |
| CCc1c(C)nc(N)n2c(SCC(=O)N3CCCc4ccccc43)nnc12 | 0.329 |
| O=C1CC(c2ccco2)CC2=C1C1c3ccccc3C(=O)N1c1ccccc1N2 (stereo not given) | -0.131 |
| COc1ccc(C/C(N)=N/OC(C)=O)cc1OC | -0.0812 |
| CCc1ccc(NC(=O)c2ccc(F)c(S(=O)(=O)N(CC)c3ccccc3)c2)cc1 | 0.16 |
| COc1ccccc1NC(=S)Nc1cccc(F)c1 | -0.134 |
| Cc1ccccc1S(=O)(=O)Cc1ccc(C(=O)NCCCN2CCN(C)CC2)o1 | 0.391 |
| COc1ccccc1NS(=O)(=O)c1cc([N+](=O)[O-])ccc1N/N=C/c1c[nH]c2ccccc12 | -0.233 |
| O=C(Cc1c(F)cccc1Cl)Nc1cccnc1 | 0.22 |
| Cc1ccc(C)n1-c1ccc(-c2nnco2)cc1 | 0.174 |
| Cc1nccn1CC(O)COc1ccccc1 (stereo not given) | -0.0583 |
| O=c1[nH]c2ccccc2nc1/C=C(\O)C(F)F | 0.122 |
| CC(=O)Nc1ccc(S(=O)(=O)Nc2nc3ccc(C)cc3s2)cc1 | 0.464 |
| CCCC(=O)NC(Nc1ccccc1F)C(Cl)(Cl)Cl (stereo not given) | -0.279 |
| O=C(OCC(=O)N1N=C(c2ccc(Cl)cc2)CC1c1ccco1)c1ccccc1O (stereo not given) | 0.0346 |
| CC(C)(C)NC(=O)C(c1ccncc1)N(C(=O)CNC(=O)c1ccco1)c1ccc2c(c1)OCO2 (stereo not given) | 0.106 |
| CC(C)C(NC(=O)C12CC3CC(CC(C3)C1)C2)C(=O)NC1=NCCS1 (stereo not given) | -0.431 |
| CC(=O)C1=C(C)NC(=O)NC1c1ccc(OC2CCCC2)cc1 (stereo not given) | -0.185 |
| CCCn1c2c(c(O)c(C(=O)NCCCN(CC)CC)c1=O)CCCC2 | 0.585 |
| COc1ccc(C2C3=C(CC(C)(C)CC3=O)Nc3cc4c(cc32)OCO4)cc1 (stereo not given) | -0.138 |
| CC(C)NS(=O)(=O)c1ccc(OCC(=O)Nc2ccc(F)cc2F)cc1 | -0.272 |
| O=C(c1cc2nc(-c3cccs3)cc(C(F)(F)Cl)n2n1)N1CCCc2ccccc21 | 1.32 |

| SMILES | z-score |
| --- | --- |
| CN(CCO)c1ncnc2nc[nH]c12 | 0.434 |
| CC(=O)c1c(N2CCOCC2)nc(=O)n(-c2ccccc2)c1C | 0.0445 |
| COc1ccc(CCN2CC(O)=C(c3nc4ccccc4c(=O)[nH]3)C2=N)cc1OC | -0.416 |
| COC(=O)c1ccc(NC(=O)C2CC(=O)N(c3cc(C)ccc3C)C2)cc1 (stereo not given) | -0.0858 |
| N#CC(C(=O)c1ccco1)c1ccccn1 (stereo not given) | 0.705 |
| O=C(C1=C(O)C(=O)N(Cc2ccccc2)C1c1cccnc1)c1ccco1 (stereo not given) | -0.769 |
| O=C(CSc1nnnn1C1CCCCC1)NCc1cccc(C(=O)O)c1 | -0.303 |
| Cc1oc(-c2cccc(Cl)c2)nc1CN1CCC(C(=O)NCc2cccnc2)CC1 | -0.0247 |
| COc1ccc(-n2c(-c3ccccc3)cc3c2CCCC3=O)cc1 | -0.36 |
| O=C(Nc1nccs1)C(=O)c1c[nH]c2ccccc12 | 0.0629 |
| COc1ccc2cc3cc(C(=O)Nc4cc(OC)c(OC)c(OC)c4)oc3nc2c1 | -0.255 |
| COc1ccc(OCC(=O)NN2Cc3ccccc3C2=N)cc1 | 0.0323 |
| COc1ccc2nc(SCC(=O)N3CC(=O)Nc4ccccc43)c(C#N)cc2c1 | -0.773 |
| CCC(C)(C)NC(=O)C(c1cccc(OC)c1)N(C(=O)c1ccn[nH]1)c1cccc(OC)c1 (stereo not given) | -1.39 |
| O=C(NCc1ccc(Cl)cc1)c1cc(-c2cccs2)on1 | -0.283 |
| COc1ccccc1NC(=O)C1=C(C)Nc2nc(-c3ccccc3)nn2C1c1ccccn1 (stereo not given) | 0.166 |
| CCOCCCNC(=O)C(c1ccc(OC)cc1)N(Cc1ccc2c(c1)OCO2)C(=O)CNC(C)=O (stereo not given) | 0.266 |
| O=C(Nc1nnc(-c2ccccc2F)s1)C1CCCO1 (stereo not given) | 0.0714 |
| CCCNC(=O)c1[nH]c(C)c(C(C)=O)c1C | 0.141 |
| COc1cc(/C=N\NC(=O)CN2CCOCC2)ccc1OCC(=O)Nc1ccc(C)c(C)c1 | -0.123 |
| CCc1nc(Nc2ccc(N3CCN(C(C)=O)CC3)cc2)c2oc3ccccc3c2n1 | -0.238 |
| O=C(c1ccco1)N1CCC(c2ccccc2)C1 (stereo not given) | 0.0412 |

| SMILES | z-score |
| --- | --- |
| C=CCC(CC=C)(NC(=O)c1ccccc1C(=O)O)c1ccccc1 | 0.0704 |
| CS(=O)(=O)N(CC(=O)N/N=C/c1cc2c(cc1Br)OCO2)c1ccccc1Br | -0.0775 |
| Cc1ccc(/C=N/NC(=O)c2ccc(C(=O)N/N=C/c3ccc(C)s3)o2)s1 | 0.0623 |
| O=C(Nc1ccn(Cc2ccccc2F)n1)c1ccc(COc2ccc(Br)cc2)cc1 | -0.439 |
| Cc1cc(-c2n[nH]c(=S)o2)c(C)n1-c1ccccc1 | 0.0801 |
| NS(=O)(=O)c1ccc(CCNC(=S)Nc2ccc(S(N)(=O)=O)cc2)cc1 | 0.115 |
| COC(=O)c1ccc(CSc2nc3c(c(=O)n2-c2ccc(F)cc2)SCC3)o1 | active: -3.65 |
| COc1ccc(C(=O)Nc2ccc3c(c2)nc(CCNC(C)=O)n3C)cc1 | -0.0809 |
| CCC(c1c(C)n(C)n(-c2ccccc2)c1=O)c1c(C)n(C)n(-c2ccccc2)c1=O | 0.0304 |
| CCC(C)(C)NC(=O)C(c1ccc(F)cc1)N(Cc1ccco1)C(=O)c1cnccn1 (stereo not given) | active: 3.05 |
| O=C(CNCCN1CCOCC1)Nc1ccccc1Sc1ccccc1 | 0.0321 |
| Cc1cc(C)c2c(N)c(C(=O)NC3CC3)sc2n1 | -0.539 |
| COc1ccc(OC)c(C(c2nnnn2CC2CCCO2)N2CCN(C3CCCC3)CC2)c1 (stereo not given) | 1.27 |
| O=C1COc2ccc(C(=O)COC(=O)c3sc4ccccc4c3Cl)cc2N1 | -0.245 |
| CCOc1cccc(-c2cc(=O)[nH][nH]2)c1 | 0.0756 |
| O=C(CC1Oc2ccccc2NC1=O)NCCCN1CCN(C2CCCCC2)CC1 (stereo not given) | 0.359 |
| O=C(O)C1C2C=CC(C2)C1C(=O)NCCc1ccccc1 (stereo not given) | -0.122 |
| CCOC(=O)C1CCN(C(=O)COc2ccc(S(=O)(=O)NC(C)C)cc2)CC1 | -0.107 |
| O=C(NCc1ccccc1)c1cc(S(=O)(=O)N2CCC3(CC2)OCCO3)ccc1F | 0.0291 |
| N#CCCN(CCC#N)C(=O)COc1ccc(Cl)cc1Cl | 0.143 |
| CC1Cc2ccccc2N1C(=O)Cc1cccs1 (stereo not given) | -0.395 |
| COc1ccc2c(c1)CCC/C2=N\NC(=O)c1ccoc1C | -0.15 |

| SMILES | z-score |
| --- | --- |
| CCN1C(=O)N(CC)C2C1N(C(C)=O)C(=O)N2C(C)=O (stereo not given) | -0.4 |
| C/C(CC(=O)NC(C)(C)C)=N\NC(=O)c1ccco1 | -0.165 |
| COc1ccc(-n2c(C)cc(C(=O)CSc3nn4c(=O)c(C(C)(C)C)nnc4s3)c2C)cc1 | -0.483 |
| CC(C)CN=c1cc(-c2ccccc2)oc2ccc(Cl)cc12 | -1.43 |
| CC(C)Nc1nc(NC(C)C)nc(NS(=O)(=O)c2ccc(N)cc2)n1 | -0.0611 |
| Cc1ccc(S(=O)(=O)N2CCC(=O)N2)cc1 | 0.0388 |
| Cc1onc(-c2ccccc2Cl)c1C(=O)Nc1ncn[nH]1 | 0.135 |
| CCN(CC)CCNC(=O)c1ccc(NC(=O)c2ccc(Cl)c(S(=O)(=O)Nc3ccccc3OC)c2)cc1 | 2.14 |
| N=c1n(CCO)c2ccccc2n1CCOc1ccc(Cl)cc1Cl | 0.259 |
| O=C(NCCc1nc2ccccc2[nH]1)/C(=C/c1ccc2c(c1)OCO2)NC(=O)c1ccccc1Cl | -1.09 |
| COc1cc2c(cc1OC)CN(C(=O)CCCOc1ccc(Cl)cc1Cl)CC2 | -0.416 |
| CCn1c2ccccc2c2cc(/C=N/NC(=O)c3ccc(O)cc3)ccc21 | -0.325 |
| Cc1cccn2c(/C=N/OCc3ccc(F)cc3)c(-c3ccc(Cl)cc3)nc12 | 0.0899 |
| N#Cc1nc(-c2cccs2)oc1NCc1ccco1 | 0.26 |
| CSc1nc(N)nc(SC2C=CCCC2)c1C#N (stereo not given) | -0.137 |
| Cc1nn(C)cc1C(=O)Nc1ccccc1Br | -0.343 |
| Cn1ncc(Cl)c1C(=O)NCc1cc(C(C)(C)C)n[nH]1 | -0.338 |
| CC1Cc2ccccc2N1C(=O)Cn1c(=O)oc2cc(S(=O)(=O)N3CCCCC3)ccc21 (stereo not given) | -0.25 |
| Cc1cc(C)cc(N(CC(=O)NC2CCCCC2)C(=O)c2ccc(C)s2)c1 | -0.0241 |
| NC(=O)c1sc2nc(-c3ccco3)ccc2c1N | -0.321 |
| CCOC(=O)c1sc(-c2ccc(Br)cc2)cc1N | -0.146 |
| NC(=O)C1(N2CCCCC2)CCN(C(=S)Nc2ccccc2)CC1 | -0.163 |

| SMILES | z-score |
| --- | --- |
| COc1ccc(NC(=O)C2CCN(C(=O)c3cccs3)CC2)c(OC)c1 | -0.342 |
| Cn1nnc2cc(C(=O)Nc3cccnc3)ccc21 | -0.208 |
| CCCCNC(=O)CCc1nc2cccnc2n1Cc1ccc(OC)cc1 | 0.0056 |
| O=C(NC1=NCCS1)c1ccc(OCC2CCCO2)cc1 (stereo not given) | -0.511 |
| Fc1ccc(N2CCN(C(c3cccs3)c3nnnn3CCc3ccccc3)CC2)cc1 (stereo not given) | -0.0527 |
| Nc1c(C(=O)NCc2ccccc2)sc2nc3c(cc12)C(=O)CCC3 | -0.298 |
| COc1ccc(N/C=C/C(=O)c2ccc(Oc3ncccn3)cc2)cc1 | -0.161 |
| COC(=O)/C=c1/sc2nc3ccccc3n2c1=O | -0.0905 |
| CCCc1cc(=O)[nH]c(SCC(=O)c2cc(C)n(CCC)c2C)n1 | -0.328 |
| CCOc1ccc2oc(C(=O)OCC(=O)NC(=O)NC3CCCC3)c(C)c2c1 | -0.038 |
| O=C(CO/N=C/c1cccc([N+](=O)[O-])c1)NC1CCCCC1 | -0.0598 |
| CCOC(=O)C1=C(C)NC2=C(C(=O)CC(c3cccs3)C2)C1c1cccs1 (stereo not given) | -0.639 |
| COc1ccc(-c2nnc(Nc3nc4c(OC)cccc4s3)o2)cc1 | active: 17.1 |
| CN(CCCNS(=O)(=O)c1cccc2cccnc12)Cc1ccccc1 | 0.0546 |
| CCCC(C)NC(C)C(=O)NC1CCCC1 (stereo not given) | -0.234 |
| O=S(=O)(c1cccc2cccnc12)N(CCO)CCO | 1.05 |
| COc1ccc(C2CC(=O)c3cnc(NC(=O)c4ccccc4OC)nc3C2)c(OC)c1 (stereo not given) | -0.471 |
| CCOc1ccc(C(=O)Nc2c3c(nn2-c2cccc(C)c2C)CS(=O)C3)cc1 (stereo not given) | -0.371 |
| Cc1cccc(-c2nc(=S)c3c(o2)CCCC3)c1 | 0.856 |
| O=C(Nc1cc(Cl)ccc1Oc1ccccc1)c1ccc(F)cc1 | -0.256 |
| Cc1cccc(C)c1NC(=O)c1cc(S(=O)(=O)N2CCOCC2)ccc1F | -0.0718 |
| COC(=O)c1ccc(Cl)c(NC(=O)c2ccc(-c3ccccc3)cc2)c1 | -0.1 |

— PubChem BioAssay AID488969 (Vanderbilt High Throughput Screening Facility, 2010)
